B1: CPEB3 Ribozyme (parent)
chain: UAACAGGGGGCCACAGCAGAAGCGUUCACGUCGCAGCCCCUGUCAGAUUCUGGUGAAUCUGCGAAUUCUGCUGUAUAUCUC

The values that follow come from the RNAGym collection of RNA variant scans (doi:10.1093/nar/gkz1192).

Read counts are not given, so values of variants with three or more changes are uncertain.

In the data set the parent is B1. The data set can be described thus: self-cleavage, relative activity (ratio to wild type); higher = more cleavage; in vitro, sequencing. The gist of the method: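 Relative activity was defined as the cleaved/total read fraction for a variant divided by the same fraction for the unmutated ribozyme. CPEB3 self-cleaving ribozyme libraries were made by rounds of error-prone PCR, barcoded, and transcribed in vitro with T7 RNA polymerase for 5 hours at 37°C, and cleavage ran through transcription plus a 15 min DNase I step before EDTA. Illumina sequencing of template-switched reverse transcripts gave the reads, and DNA sequencing mapped the barcodes. Averages come from three batches, using variants with at least 5 reads.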
For UAACAGGGGGCCACAGCAGAAGCGUUCUCGUCGCAGCCCCUGCCAGAUUCUGGUGUACCUGCGAAUUCCGCUGUAUAUCUC [A28U U43C A56U U58C U69C], the self-cleavage came out at 0.08. The figure for UAACAGGGGGCCACAGCAGAAGCGUUCUCGUAGCAGCCCCUGUCAGUUUCAGGCGAAUCCGCGAAUUCUGCCGUAUAUCUC [A28U C32A A47U U51A U54C U60C U72C] is 0.05; for UAACAGGGGGCCACAGCAGAAGCGUUCGCGUCGCAGCCCCUGUCAGAUUCUGGUGAAUCAGCGAAUUCUGCUGUUUAUCCC [A28G U60A A75U U80C] it is 0.42. The figure for UAACAGGGGGCCACAGCAGAAGCGUUCUCGUCGCAGCCCCAGUCUGAUUCUGGUGAGCCUGCGAAUUCUGCUGUAUAUCUC [A28U U41A A45U A57G U58C] is 0.15. In the case of UAACAGGGGGCCACAGCAGAAGCGUUCGCGUCGCAGCCCCUGUCAGAUUCUGGUGAAUCCGCGUAUUCUGCUGUAUAUCGC [A28G U60C A64U U80G], the self-cleavage came to 0.13.

Consider UAACAGGGGGCCACAGCAGAAGCGUUCUCGUCGCAGCCCCAGUCAGAUUCUGGUGAAUCCGCGAAUUCCGCCGUAUAUCUC [A28U U41A U60C U69C U72C], for which the self-cleavage was 0.06. Then UAACAGGGGGCCACAGCAGAAGCGUUCGCGUCGCAGCCCCUGUCAGAUUCUGGUGAAUCUGCGAAUUCUGCCGUAUACCUC [A28G U72C U78C], with 0.69; and UAACAGGGGGCCACAGCAGAAGCGUUCGCGUCGCAGCCCCUGUCAGAUUCUGGUGAAUCCGCGAAUUCUGACGUAUAACUC [A28G U60C C71A U72C U78A], with 0.13. The figure for UAACAGGGGGCCACAGCAGAAGCGUUCUCGUCGUAGCCCCUGUCAGACUCUGGUGAAUCUGCGAAUUCUGCUGUAUAUCUC [A28U C34U U48C] is 0.45; for UAACAGGGGGCCACAGCAGAAGCGUUCUCGUCGCAGCCCCUGUCAGAUUCUGGUGGAUCUGCGAAUCCUGCUGUAUAUCUC [A28U A56G U67C] it is 0.19. Then UAACAGGGGGCCACAGCAGAAGCGUUCUCGUCGCAGCCCCUGUUGGAUUCAGGUGAAUCUGCGAAUUCUGAUGUAUAUCUC [A28U C44U A45G U51A C71A], with 0.12.

As to UAACAGGGGGCCACAGCAGAAGCGUUCUCGUCGCAGCCCCUGUCAGUUUCUGGUGAAUCUGCGAAUUCCGCUGUAUAUCUC [A28U A47U U69C], the self-cleavage is 0.39. The figure for UAACAGGGGGCCACAGCAGAAGCGUUCUUGUCGCUGCCCCUGCCAGAUUCCGGUGAAUCUGCGUAUUCUGCUGUAUAUCUC [A28U C29U A35U U43C U51C A64U] is 0.07. The figure for UAACAGGGGGCCACAGCAGAAGCGUUCGCGUCGCAGCCCCUGUCAGAUUCUGGUGAAUCUGCGAAUUCUGCAGUAUACCUC [A28G U72A U78C] is 0.31; for UAACAGGGGGCCACAGCAGAAGCGUUCUCGUCGCAGCCCCUGUCUGAUUCUGAUGAAUCCGCGAGUUCUGCUGUAUAUCUC [A28U A45U G53A U60C A65G] it is 0.14.

Take UAACAGGGGGCCACAGCAGAAGCGUUCUCGUCGCAGCCCGCGUCAGAUUCUGGUGAACCUGCGAAUUCUGCUGUAUAUCUC [A28U C40G U41C U58C]: the self-cleavage came out at 0.09.

Consider UAACAGGGGGCCACAGCAGAAGCGUUCGCGUCGCAGCCCCUGUCAGAUUCUGGUGAAUCUGCGAACUCUGCUGUUUAUCUC [A28G U66C A75U], for which the self-cleavage worked out at 0.08.

As to UAACAGGGGGCCACAGCAGAAGCGUUCUUGUCGCAGCCCCUGUCAGAUUCUGGUGAAUCUGCGAGUUCUGCUGUAUAUCUC [A28U C29U A65G], the self-cleavage is 0.09.

Take UAACAGGGGGCCACAGCAGAAGCGUUCUCGUCGCAGCCCCUGCCGGAUUCUGGUGAAUCUGCGAAUUCUGCCGUAUAUCUC [A28U U43C A45G U72C]: the self-cleavage came out at 0.5.

Take UAACAGGGGGCCACAGCAGAAGCGUUCUCGUCGCAGCCCCUGUCAGAUUCUAGUGGAUCUGCGAAUUCUGCUGUAUAUCUC [A28U G52A A56G]: the self-cleavage amounted to 0.63. Consider UAACAGGGGGCCACAGCAGAAGCGUUCUCGUCGCAGCCCCUGCCAGAUUCCGGUGAAUCUGCGAAUUCUGCUGUAUAUCUC [A28U U43C U51C], for which the self-cleavage amounted to 0.64.

As for UAACAGGGGGCCACAGCAGAAGCGUUCUCGUGGCAGCCCCUGUCAGAUUCUGGUGAAACUGCGAAUUCUGCUGUAUAUCUC [A28U C32G U58A], the self-cleavage is 0.06. Then UAACAGGGGGCCACAGCAGAAGCGUUCUCGUCGCAGCCCCCGUCAGAUUCUGGUGAAUCAGCGAAUUCUGCUGUAUAUCUC [A28U U41C U60A], with 0.32; and UAACAGGGGGCCACAGCAGAAGCGUUCUCGUCGCAGCCCUUGUCAGAUUCUGGUGAAUCUGCGAAUACUGCUGUAUAUCUC [A28U C40U U67A], with 0.16. Then UAACAGGGGGCCACAGCAGAAGCGUUCUCGUCGCAGCCCAUGUCAGAUUCUGGUGAAUCUGCGAAUUCCGCUGUAUAUCUC [A28U C40A U69C], with 0.09; and UAACAGGGGGCCACAGCAGAAGCGUUCGCGUCGCAGCCCCUGUCAGAUUCUGGUGAAUCUGCGAAUACUGCUGUAUACCAC [A28G U67A U78C U80A], with 0.39.

UAACAGGGGGCCACAGCAGAAGCGUUCUCGUCGCAGCCCCUGUCAGAUUCAGGUGUAUCUGCGAAUUCCGCUGUAUAUCUC [A28U U51A A56U U69C]: the self-cleavage turned out to be 0.26. The figure for UAACAGGGGGCCACAGCAGAAGCGUUCUCGCCGCAGCUCCUGUCAGAUUCUGGUGAGUCUGCGAAUUCUGCUGUAUACCUC [A28U U31C C38U A57G U78C] is 0.09; for UAACAGGGGGCCACAGCAGAAGCGUUCUCGUCGCGGCCCCUGUCAGAUUCUGGUGAAUCUGCGAAUUCAGCUGUAUAUCUC [A28U A35G U69A] it is 0.76; for UAACAGGGGGCCACAGCAGAAGCGUUCUCGUCGCGGCCCCUGUCAGAUUCUGGCGAAUCUGCGAAUUCUGCUGUAUGUCUC [A28U A35G U54C A77G] it is 1.26. Then UAACAGGGGGCCACAGCAGAAGCGUUCGCGUCGCAGCCCCUGUCAGAUUCUGGUGAAUCUGCGAACUCUGCUGCAUAUCUC [A28G U66C U74C], with 0.33; and UAACAGGGGGCCACAGCAGAAGCGUUCGCGUCGCAGCCCCUGUCAGAUUCUGGCGAAUCUGCGAAUUCUGCUGUACAUCUC [A28G U54C U76C], with 0.58. Then UAACAGGGGGCCACAGCAGAAGCGUUCUCGUCGCUGCCCCUGAUAGAUUCUGGAGAAUCUGCGGAUUCUGCUGUAUAUCUC [A28U A35U U43A C44U U54A A64G], with 0.13. For UAACAGGGGGCCACAGCAGAAGCGUUCUCGUCGCAGCCCCUGUCAGAUUCUGGUGAGUCUGCGAAUUCUGCUGUACAUCUC [A28U A57G U76C], the self-cleavage stood at 0.51.
